The campaign covered roughly 48,000 compounds. About 550 (1.1%) were called active. Not shown: some 4% with an inconclusive outcome. Cut-off read from the data, not from the text of the source: active = potency below about 15 µM; inconclusive = mostly about 16 µM to 33 µM; inactive = weaker than that. This is one part of the list.
Molecular target: Lysosomal acid glucosylceramidase (Homo sapiens) (UniProt P04062)
Test: Glucocerebrosidase;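 note: the screen sought inhibitors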
Conditions: purified enzyme, resorufin glucoside fluorescence (screen aimed at inhibitors), 20 min; series mostly up to 77 µM
Method in brief: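 Compounds titrated against 0.2 nM normal enzyme, 30 uM resorufin beta-D-glucopyranoside substrate, citrate/phosphate buffer with taurocholate and tween-20, pH 5.9. Reaction ran 20 min at room temperature; fluorescence (Ex 548/Em 600) gave AC50.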
Potency is the fitted concentration of half-maximal effect.

UniProt P04062, sequence (P04062 whole entry, looked up): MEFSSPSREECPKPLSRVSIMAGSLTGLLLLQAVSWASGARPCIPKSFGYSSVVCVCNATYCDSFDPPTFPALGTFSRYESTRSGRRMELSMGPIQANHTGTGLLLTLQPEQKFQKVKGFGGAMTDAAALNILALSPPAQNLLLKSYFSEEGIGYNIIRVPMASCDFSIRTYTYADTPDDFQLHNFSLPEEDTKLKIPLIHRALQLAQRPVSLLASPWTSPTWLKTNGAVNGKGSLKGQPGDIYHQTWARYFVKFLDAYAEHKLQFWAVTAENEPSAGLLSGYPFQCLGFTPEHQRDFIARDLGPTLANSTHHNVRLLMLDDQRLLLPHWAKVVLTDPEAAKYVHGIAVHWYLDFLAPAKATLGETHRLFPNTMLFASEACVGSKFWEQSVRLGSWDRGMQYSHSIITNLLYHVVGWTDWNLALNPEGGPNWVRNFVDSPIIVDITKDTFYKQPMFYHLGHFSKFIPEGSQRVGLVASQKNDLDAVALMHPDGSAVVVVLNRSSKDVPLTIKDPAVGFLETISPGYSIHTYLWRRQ

| SMILES | Potency |
| --- | --- |
| COC(=O)c1ccc(NC(=O)CSc2nnc(CNc3ccc(F)cc3)n2C)cc1 | inactive: > 76.9 µM |
| Cc1cc2ncc(C(=O)Nc3ccccc3)c(C)n2n1 | inactive: > 76.9 µM |
| CCOc1ccccc1-n1c(SCC(N)=O)nc2ccccc2c1=O | inactive: > 76.9 µM |
| CCC(=O)Nc1ccccc1C(=O)N1CCOCC1 | inactive: > 76.9 µM |
| O=C1CC(c2cccs2)CC2=C1C(c1ccccc1)n1ncnc1N2 (centres undefined) | inactive: > 76.9 µM |
| Cc1ncoc1C(=O)NCc1ccccc1Cl | inactive: > 76.9 µM |
| Cc1nc(S(=O)(=O)N(C)c2ccccc2)c(C#N)c(C)c1Cl | inactive: > 76.9 µM |
| CCOc1cc(N2CCOCC2)c(OCC)cc1NS(=O)(=O)c1ccc(Cl)s1 | inactive: > 76.9 µM |
| O=C1CC(=O)N(Cc2ccco2)C(=O)N1 | inactive: > 76.9 µM |
| Cc1cccn2c(=O)c3cc(C(=O)N(C)C)n(C)c3nc12 | inactive: > 76.9 µM |
| Cn1c(=O)c2c(nc(NCCCO)n2C/C=C/c2ccccc2)n(C)c1=O | inactive: > 76.9 µM |
| CCOCCCn1c(=S)[nH]c2cc(C(=O)NCCN(CC)CC)ccc2c1=O | inactive: > 76.9 µM |
| CCc1ccc(NC(=O)C2CC(=O)N(C(C)C)C2)cc1 (centres undefined) | inactive: > 76.9 µM |
| CCCCOc1ccc(Cl)cc1CSc1nncn1N | inactive: > 76.9 µM |
| Cn1c(=O)c2ccccc2n(Cc2ccccc2F)c1=O | inactive: > 76.9 µM |
| COc1ccc2c(C(=O)CN(C)C3CCCCC3)c[nH]c2c1 | inactive: > 76.9 µM |
| O=C(CN1C(=O)C2C3C=CC(C3)C2C1=O)NCCc1ccccc1 (centres undefined) | inactive: > 76.9 µM |
| FC(F)(F)c1cnc(Nc2ccc(N3CCOCC3)cc2)c(Cl)c1 | inactive: > 76.9 µM |
| COc1ccccc1Nc1nc(N)nc(CN2CCN(c3ccccc3F)CC2)n1 | active: 2.37 µM |
| C/C(Cl)=C\Cn1c(NCCc2ccccc2)nc2c1c(=O)n(C)c(=O)n2C | inactive: > 76.9 µM |

| SMILES | Potency |
| --- | --- |
| COc1ccc(CCNS(=O)(=O)c2cccc(F)c2)cc1OC | inactive: > 76.9 µM |
| Cc1onc(-c2ccccc2)c1C(=O)Nc1nc(-c2ccc(F)c(F)c2)cs1 | inactive: > 76.9 µM |
| O=C(O)CCCCNS(=O)(=O)c1ccc(Cl)c(C(F)(F)F)c1 | inactive: > 76.9 µM |
| CCOC(=O)/C=c1\s/c(=C\c2ccc3c(c2)OCCO3)c(=O)n1CC(=O)NCC1CCCO1 (centres undefined) | inactive: > 76.9 µM |
| O=C(c1cccc2ccccc12)N1CCN(c2ccccc2F)CC1 | inactive: > 76.9 µM |
| CC(C)c1ccc(-c2nnn(CCC(=O)O)n2)cc1 | inactive: > 76.9 µM |
| Cc1ccc(N(CC(=O)Nc2cccc(C)c2)S(=O)(=O)c2cccc3nonc23)cc1 | inactive: > 76.9 µM |
| CC(C)OC(=O)CSc1nnc(-c2ccc(Cl)cc2)n1N | inactive: > 76.9 µM |
| O=C(CN(Cc1ccc(F)cc1)C(=O)c1ccco1)NCc1ccc(F)cc1 | inactive: > 76.9 µM |
| COc1ccc(-c2oc3ncnc(NCCN4CCOCC4)c3c2-c2ccc(OC)cc2)cc1 | inactive |
| O=C(c1ccc(O)cc1)c1ccc(C(=O)O)c(C(=O)O)c1 | inactive: > 76.9 µM |
| CCOC(=O)C(C)(C)C(=O)C(C)(C)C(O)c1ccccn1 (centres undefined) | inactive: > 76.9 µM |
| CN(C(=O)c1cccc(C#N)c1)c1nnc(-c2ccncc2)s1 | inactive: > 76.9 µM |
| CCCN(Cc1cc2cc(C)ccc2[nH]c1=O)S(C)(=O)=O | inactive: > 76.9 µM |
| CC(C)c1nc(-c2ccccn2)no1 | inactive: > 76.9 µM |
| CC1CCN(c2ccc(C(=O)O)cc2N)CC1 | inactive: > 76.9 µM |
| CCCCCCn1c(CN2CCN(Cc3ccccc3)CC2)nc2c1c(=O)n(C)c(=O)n2C | inactive: > 76.9 µM |
| Cn1c(Cc2ccccc2)nnc1SCCC(=O)Nc1ccccc1 | inactive: > 76.9 µM |
| Cc1ccc(C(=O)Nc2c(C(=O)NCc3ccco3)cnn2-c2ccccc2)cc1 | inactive: > 76.9 µM |
| Cc1cc(C)c2nc(-c3ccccn3)cc(C(=O)NCc3ccco3)c2c1 | inactive: > 76.9 µM |

| SMILES | Potency |
| --- | --- |
| Nn1c(SCC(=O)Nc2ccccc2F)nnc1-c1cccnc1 | inactive: > 76.9 µM |
| COCCOCC(O)CN1CCN(c2ccc(C)cc2)CC1 (centres undefined) | inactive: > 76.9 µM |
| Cc1cc2nc(C3CCN(CC4COc5ccccc5O4)CC3)[nH]c2cc1C (centres undefined) | inactive: > 76.9 µM |
| Cc1cc(C)nc(-n2nc(C)cc2NC(=O)c2cc3ccccc3oc2=O)n1 | inactive: > 76.9 µM |
| Cc1c(C(C)NC(=O)Nc2ccc(F)cc2F)cnn1C (centres undefined) | inactive: > 76.9 µM |
| CCCc1ccccc1OCCNC(C)=O | inactive: > 76.9 µM |
| O=C(NCCc1c[nH]c2ccccc12)C(F)(F)C(F)F | inactive: > 76.9 µM |
| CC(NC(=O)c1cccc(F)c1)C(c1cccs1)N1CCN(C)CC1 (centres undefined) | inactive: > 76.9 µM |
| COc1cccc2c(C)c(C(=O)O)[nH]c12 | inactive: > 76.9 µM |
| COCc1[nH]nc2c1C1(C(=O)Nc3ccc(F)cc31)C(C#N)=C(N)O2 (centres undefined) | inactive: > 76.9 µM |
| CCCCn1c(SCC(=O)N(CC)C2CCS(=O)(=O)C2)nnc1C(CC)N(C)C (centres undefined) | inactive: > 76.9 µM |
| COc1cc(-c2nc(S(=O)(=O)c3ccc(Cl)cc3)c(N3CCOCC3)o2)cc(OC)c1OC | inactive: > 76.9 µM |
| Cc1ccc(OCc2nc(C#N)c(NCc3ccc4c(c3)OCO4)o2)cc1 | inactive: > 76.9 µM |
| CCC(c1nnnn1Cc1ccco1)N1CCC(C(N)=O)CC1 (centres undefined) | inactive: > 76.9 µM |
| CCNc1nc(SC(C)C(=O)Nc2ccccc2)nc(N2CCOCC2)n1 (centres undefined) | inactive: > 76.9 µM |
| CCn1c(SCC(=O)Nc2ccc(NC(=O)c3ccco3)c(OC)c2)nc2ccccc2c1=O | inactive: > 76.9 µM |
| COc1cc2c(C)nc3onc(-c4ccccc4)c3c2cc1OC | inactive: > 76.9 µM |
| COCCN(CCOC)C(=O)c1cc2sc3ccccc3c2s1 | inactive: > 76.9 µM |
| COn1c(SCC(=O)N(C)C)nc2ccccc2c1=O | inactive: > 76.9 µM |

Source: PubChem BioAssay AID360 (National Center for Advancing Translational Sciences (NCATS), 2006)
